Drawing on the supplement of paper PMC10126150, this text covers switch fluorescence ratio for 79 sequences.

Values marked as one replicate rest on one cluster of the flow cell; about a third of the high ones do not repeat.
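Note: ATP exposure 15 min at 22 °C before imaging.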

The series relates to ATP. In words: switch fluorescence ratio, 500 uM ATP over buffer (Cy3 cluster intensity, sum of 5 cycles each) (fold (ratio)); higher = stronger signal-on switching upon ATP binding; sequences stand for … in TCGTCGGCAGCGTCAGATGTGTATAAGAGACAGTTTTTTTTTTTTTTTTTTTTTTTTT…TC. Particulars: aptamer strand: ATP DNA aptamer (quencher-CACCTGGGGGAGTATTGCGGAGGAAGG + anchor), 100 nM annealed; ATP concentration: 500 uM; one replicate. The procedure, abridged:
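The fluorescence ratio divides summed target-cycle Cy3 intensity by summed buffer-cycle Cy3 intensity for each cluster and is averaged per switch-domain sequence. Cy3-labelled switching-strand clusters on a modified Illumina MiSeq flow-cell were annealed to 100 nM quencher-labelled ATP aptamer, then imaged in selection buffer and again after 15 min with 500 uM ATP at 22 °C. Five such cycles were run, with NaOH stripping and re-annealing between them, and clusters outside 100-1000 RFU were excluded.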
As to GATCTTGCGA, the switch fluorescence ratio worked out at 1.16. As to CGTGATAGAC, the switch fluorescence ratio came to 1.12. The value for TAGAGCACCG was 0.935.

For the sequence CTGTTATTC, the switch fluorescence ratio worked out at 1.01. The value for TGAACTGGGC was 1.21.

For the sequence GTGAGGACAG, the switch fluorescence ratio came to 0.959. In the case of CGTACTACAT it was 1.07; in that of TATGGCTCTT, 0.938. For the sequence GGAGGCTTAA, the switch fluorescence ratio turned out to be 1.05. The value for GAGAACCTGC was 1.12; that for CAATAATGGG was 0.991. With ATTAAACATA, the switch fluorescence ratio came out at 1.01. Take GCTGATGTGT: the switch fluorescence ratio came to 1.04. Regarding TCCAGTGGTT, the switch fluorescence ratio came to 1.03. Turning to AAAGCGTACT, the switch fluorescence ratio stood at 1.09.

For the sequence TCGGTGCGCG, the switch fluorescence ratio was 0.947. In the case of TAGGCGCCTC it was 1.04; in that of AAAAGCACCC, 1.31.

With ATCATCCCTG, the switch fluorescence ratio worked out at 0.995. Take CTTCGCTAAT: the switch fluorescence ratio amounted to 3.97. On to CGTTAGTGGG, for which the switch fluorescence ratio was 1. CCGTGGTTAG: the switch fluorescence ratio worked out at 1.07. In the case of TATCAGATTC, the switch fluorescence ratio was determined as 1.02.

As to ACATTCTCCA, the switch fluorescence ratio worked out at 1.01.

On to AGGAGATCTT, for which the switch fluorescence ratio was 0.972.

As for TGTTAGGTGG, the switch fluorescence ratio stood at 1.02. Turning to ACCCTCAGTT, the switch fluorescence ratio worked out at 1.03. For the sequence TTGTATACGG, the switch fluorescence ratio amounted to 0.977. The value for CGGGTGCAGA was 1.03. For the sequence TTGCCCGCTT, the switch fluorescence ratio was 1.06. The value for TCGACATGTT was 1; that for TTGCTTCTGT was 0.986. The value for GGGGATTGGC was 0.893; that for ACTGTCAGAG was 1.01. The value for CAAGGAAATT was 0.995; that for TTGCCCTTTA was 0.968; that for ATGCCATTTT was 1.01. Consider TTTCAAGGCT, for which the switch fluorescence ratio came to 0.994. The value for GTAGCAGATC was 2.55.

Turning to AAATGGTGCC, the switch fluorescence ratio amounted to 1. The value for ATGCTGGGT was 0.998; that for AAATATCCCC was 1.06.

For GATTCCTGAA, the switch fluorescence ratio turned out to be 1.06. In the case of TCAACGTTCG it was 0.996; in that of CTGTGTGCGC, 1.01; in that of TTATCCTAGC, 0.978. In the case of CTCCATATTT it was 1.09; in that of ATTTACCAGT, 1.1; in that of GTGCCACGGT, 0.993.

CGTACTAGCA: the switch fluorescence ratio is 1.06. The value for CCTAGTAAGC was 1.87; that for CGTTCTAATC was 1.02. In the case of TTTTAACGAT it was 1; in that of GACTTCCTGT, 1.07.

For the sequence CAATTAGCGG, the switch fluorescence ratio came out at 1. Turning to GCGATAGCG, the switch fluorescence ratio came to 0.968.

With TCGGGAATGC, the switch fluorescence ratio was 1.7. Consider TGCTAGGCT, for which the switch fluorescence ratio was 1.06. In the case of ATAGGGTAAA it was 0.965; in that of GTGCTCCGGG, 1.07.

Turning to TGTGTCCCCG, the switch fluorescence ratio came to 0.999. The value for TGGAGATAG was 1.25; that for AGACATCGTA was 0.944. For the sequence GGTAATCTTG, the switch fluorescence ratio was 1.02. Regarding GCTCGATTAT, the switch fluorescence ratio was 0.984. As for ATAAGACCAT, the switch fluorescence ratio worked out at 1.03. Consider TGATCGGGAT, for which the switch fluorescence ratio came to 1.04.

On to ACGGAACTTA, for which the switch fluorescence ratio is 1.16. As for GCATAGCCGT, the switch fluorescence ratio came out at 0.973. Take CCGAATTCGT: the switch fluorescence ratio came to 0.981.

On to AAGCGGGGTT, for which the switch fluorescence ratio was 1.04.

Take TTTTAAGCCA: the switch fluorescence ratio is 1.08. For the sequence ACAGTGCACA, the switch fluorescence ratio worked out at 0.999. With CTGGTCTCTC, the switch fluorescence ratio came out at 1. In the case of TTTTGTAGGA it was 1. In the case of CCGTTAAGGG it was 0.976; in that of GCAATTCAAT, 1.02; in that of GTTGGGTGTC, 1.11.

As for GTATACCTGG, the switch fluorescence ratio was determined as 0.98.
